{"source": "PubChem BioAssay AID1347073", "about": "(National Center for Advancing Translational Sciences (NCATS), 2019)", "note": "The campaign covered roughly 45,000 compounds. About 200 (0.44%) were called active. Inconclusive results (about 7%) are left out. Calls follow the shape of the dose curve; as a rule, active = well fitted activation curve with a large enough effect; inconclusive = small, poorly fitted or top-dose-only effect; inactive = no such curve, though single readings can be large or run the other way. Some of the results follow."}
{"test": "qHTS of TDP-43 Inhibitors: NCGC Sytravon Library Screen; also: 0% is about no effect; nearly all actives have a fitted effect of over 55% in size", "details": "yeast TDP-43 toxicity rescue, BacTiter-Glo growth, 24 h; series mostly up to 46.1 µM; growth rescue (activation): at the top concentration", "outline": "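TDP-43-expressing yeast, pregrown in raffinose, seeded at OD600 0.02 in galactose medium with compound for 24 hr at 30 deg C. Growth read by BacTiter-Glo luminescence, so rescue of toxicity appears as activation.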"}
{"smiles": "O=C(Nc1cccc(-c2nc3ccccc3[nH]2)c1)c1ccccc1F", "growth rescue (activation)": "inactive: -8.64%"}
{"smiles": "CC(C)(C)c1ccc(C(=O)NCC(=O)N2CCNC(=O)C2)cc1", "growth rescue (activation)": "inactive: -15.8%"}
{"smiles": "O=c1cc(Cl)c2ccccc2n1-c1ccccc1", "growth rescue (activation)": "inactive: 17.3%"}
{"smiles": "COCC(C)NC(=O)c1cccc([N+](=O)[O-])c1", "note": "(stereo not given)", "growth rescue (activation)": "inactive: 6.28%"}
{"smiles": "N#Cc1c2n(c(=S)n(-c3ccc(F)cc3)c1=O)CCCCC2", "growth rescue (activation)": "inactive: -11.5%"}
{"smiles": "O=C1NC2=C(C(=O)CCC2)C(c2ccc(OC(F)F)cc2)N1", "note": "(stereo not given)", "growth rescue (activation)": "inactive: -24%"}
{"smiles": "CCC(=O)OCC(=O)Nc1ccc([N+](=O)[O-])cc1OC", "growth rescue (activation)": "inactive: 9.59%"}
{"smiles": "CC(=O)Nc1cc(-c2ccc(C(=O)N3CCOCC3)cc2)cn2c(-c3ccc(C(C)=O)cc3)cnc12", "growth rescue (activation)": "inactive: 4.63%"}
{"smiles": "CCOC(=O)C1(CC2CC2)CCN(Cc2cnc(-c3ccc(OC)cc3)nc2)CC1", "growth rescue (activation)": "inactive: 8.72%"}
{"smiles": "NNC(=O)CCC(=O)Nc1ccccc1", "growth rescue (activation)": "inactive: -7.87%"}
{"smiles": "COc1cccc(/C=N/NC(=O)C[n+]2ccccc2)c1O", "growth rescue (activation)": "inactive: 9.03%"}
{"smiles": "CCCN(CCC)CCN1C(=O)C2C(C(=O)Nc3cccc(SC)c3)C3C=CC2(O3)C1C(=O)NC1CCCCC1", "note": "(stereo not given)", "growth rescue (activation)": "inactive: 7.21%"}
{"smiles": "Brc1ccc(-c2cnco2)cc1", "growth rescue (activation)": "inactive: 1%"}
{"smiles": "COc1ccc(CCN2CN(S(=O)(=O)c3ccc(C)cc3)c3nc4ccccc4nc32)cc1OC", "growth rescue (activation)": "inactive: 14.4%"}
{"smiles": "Cn1cccc1CC(=O)N/N=C/C=C/c1ccccc1", "growth rescue (activation)": "inactive: 13.7%"}
{"smiles": "Cc1ccccc1NS(=O)(=O)c1ccc(OCC(=O)NCC2CCCO2)cc1", "note": "(stereo not given)", "growth rescue (activation)": "inactive: -18.6%"}
{"smiles": "CCCS(=O)(=O)N1CCC(C(=O)NCCc2ccc(C)cc2)CC1", "growth rescue (activation)": "inactive: 30.5%"}
{"smiles": "CCOc1ccccc1Oc1coc2cc(OCC(=O)O)ccc2c1=O", "growth rescue (activation)": "inactive: 4.83%"}
{"smiles": "O=C(O)c1ccc(N/N=C/c2cc3c(cc2[N+](=O)[O-])OCO3)cc1", "growth rescue (activation)": "inactive: -3.47%"}
{"smiles": "CCCn1nc(C(=O)Nc2ccc(S(=O)(=O)Nc3nccs3)cc2)c2ccccc2c1=O", "growth rescue (activation)": "inactive: -14.6%"}
{"smiles": "CCOc1ccc(S(=O)(=O)N(C(=O)c2ccco2)c2cc3sc(=O)oc3c3ccccc23)cc1", "growth rescue (activation)": "inactive: 17.6%"}
{"smiles": "COc1ccc(NC(=O)Nc2nc(C(N)CC(C)C)cs2)cc1", "note": "(stereo not given)", "growth rescue (activation)": "inactive: 7.28%"}
{"smiles": "CCSc1nnc([C@@H](NC(=O)OC(C)(C)C)C(C)C)o1", "growth rescue (activation)": "inactive: 3.01%"}
{"smiles": "O=C(Nc1cccc(NC(=O)c2cccs2)c1)c1ccc(F)cc1", "growth rescue (activation)": "inactive: 3.77%"}
{"smiles": "CCn1cc(CN2N=C(C)CC2c2ccccc2)c(C)n1", "note": "(stereo not given)", "growth rescue (activation)": "inactive: -4.68%"}
{"smiles": "COc1ccc(NC(=S)N(Cc2cccc(Br)c2)CC2CCC(C(=O)O)CC2)cc1", "note": "(stereo not given)", "growth rescue (activation)": "inactive: 16.4%"}
{"smiles": "COc1ccc(C(=O)Nc2ccc(Cl)c(S(=O)(=O)N3CCOCC3)c2)cc1", "growth rescue (activation)": "inactive: 27.2%"}
{"smiles": "COc1ccc(CCNC(=O)Cn2c(=O)cnc3ccccc32)cc1", "growth rescue (activation)": "inactive: 17.3%"}
{"smiles": "CC(=O)c1cccc(NC(=O)CSc2nnnn2C2CCCC2)c1", "growth rescue (activation)": "inactive: -12%"}
{"smiles": "C=CCOc1ccc(C(=O)Nc2ccc(OCC)cc2)cc1", "growth rescue (activation)": "inactive: 17.2%"}
